# Test results as given in PubChem BioAssay AID1745853 (National Center for Advancing Translational Sciences (NCATS), 2022).
# The other results are listed elsewhere or left out. Shown are side measurements of this screen, not its main read-out; they come without a call.
# What was measured:
# Assay in all cases: Primary Screen for Target Class Profiling of Small Molecule Inhibitors of Methyltransferases
# [1] = molecular target: Glycine N-methyltransferase (Homo sapiens) (UniProt Q14749); conditions: purified enzyme, MTase-Glo SAH luminescence; measured here: GNMT inhibition; at 40 µM; stronger effect = lower value
# Outline: (§1)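 Each enzyme was reacted with SAM and its substrate, with compounds tested once at 40 uM; SAH formed was read by MTase-Glo luminescence.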
# [2] = molecular target: Guanidinoacetate N-methyltransferase (Homo sapiens) (UniProt Q14353); conditions: purified enzyme, MTase-Glo SAH luminescence; measured here: GAMT inhibition; at 40 µM; stronger effect = lower value
# Outline: as §1
# [3] = molecular target: Histamine N-methyltransferase (Homo sapiens) (UniProt P50135); conditions: purified enzyme, MTase-Glo SAH luminescence; measured here: HNMT inhibition; at 40 µM; stronger effect = lower value
# Outline: as §1
# [4] = molecular target: Nicotinamide N-methyltransferase (Homo sapiens) (UniProt P40261); conditions: purified enzyme, MTase-Glo SAH luminescence; measured here: NNMT inhibition; at 40 µM; stronger effect = lower value
# Outline: as §1
# [5] = molecular target: Phenylethanolamine N-methyltransferase (Homo sapiens) (UniProt P11086); conditions: purified enzyme, MTase-Glo SAH luminescence; measured here: PNMT inhibition; at 40 µM; stronger effect = lower value
# Outline: as §1
# % is set by controls: 0 for no effect and ±100 for the full control effect.
SMILES,"activity change, negative = inhibition [1]","activity change, negative = inhibition [2]","activity change, negative = inhibition [3]","activity change, negative = inhibition [4]","activity change, negative = inhibition [5]"
Cc1c(C(=O)NCc2cccnc2)nn(-c2ccc(Cl)cc2Cl)c1-c1ccc(Cl)cc1,-4.01%,-19.5%,4.75%,-45.6%,-8.69%
COc1ccc(CCN2C(=O)c3cc4occc4n3CC2(C)C(=O)NC2CCCCCC2)cc1OC (stereo not drawn),3.85%,13.2%,7.53%,-43.8%,-13%
COc1ccc(-c2nc(C)nc3c2CCN([S+](=O)([O-])c2cccs2)CC3)cc1,-15.9%,-6.29%,-2.57%,-18.8%,-9.72%
Cc1ccc(O[C@H]2CCOC[C@H]2NC(=O)CCc2c(C)noc2C)cn1,1.19%,3.05%,2.43%,-1.46%,17.5%
CN(Cc1ccccc1)Cc1cn([C@H]2CO[C@H]3[C@@H]2OC[C@@H]3NC(=O)CCC(=O)O)nn1,-29.8%,-22.3%,-0.043%,-5.01%,-27.8%
CCOc1ccccc1Nc1nc2c(S(=O)(=O)c3ccccc3)nnn2c2ccccc12,-2.15%,2.99%,4.25%,7.12%,-1.24%
CN/C(=C\[N+](=O)[O-])NCCSCc1ccc(CN(C)C)o1,-14.3%,9.07%,0.207%,-7.92%,1.36%
Cc1ccc(CNC(=O)C2(C)Cn3c(nc4ccccc43)C(=O)N2Cc2ccc(C)cc2)cc1 (stereo not drawn),1.76%,0%,-0.105%,2.56%,-0.132%
C=C(C)C1CCC2(C(=O)O)CCC3(C)C(CCC4C5(C)C(C=O)C(O)C(C)(C)C5CCC43C)C12 (stereo not drawn),-5.62%,-0.062%,-0.244%,-17.6%,-1.59%
Cc1ccc(Cn2nc3n(C)c(=O)c4ccc(C(=O)NCC(C)C)cc4n3c2=O)cc1,-2.79%,1.71%,5.28%,-2.37%,2.77%
CN(CCCN1C(=O)c2cc3occc3n2CC1(C)C(=O)NC1CCCCCCC1)C1CCCCC1 (stereo not drawn),-0.726%,1.76%,-10.9%,-7.39%,-5.39%
Cc1ccc(N2CCN(C(=O)CCc3c(C)nc4c(c3C)c(=O)n(C)c(=O)n4C)CC2)c(C)c1,–,-9.09%,–,-10.3%,1.64%
Cc1cc(Cl)cc(Cl)c1CNCC1(O)CCCNC1 (stereo not drawn),-2.46%,-6.23%,-16.5%,-3.89%,-5.27%
CC(C)Oc1ccc(CN2C(=O)c3nc4ccccc4n3CC2(C)C(=O)NC2CCCC2)cc1 (stereo not drawn),-0.981%,-0.51%,4.18%,-3.63%,-3.31%
COc1cccc(CNS(=O)(=O)c2ccc3[nH]c(=O)[nH]c3c2)c1,13.7%,0.978%,15.7%,-3.47%,-0.423%
CCOc1cccc(CN2C[C@@H](Oc3ccccc3)C[C@@H]2C(=O)NC)c1,-3.1%,-2.61%,-2.09%,-5.8%,-7.49%
Cn1c(=O)[nH]c2ncn(C)c2c1=O,-2.38%,4.65%,-1.58%,-0.962%,5.6%
Cc1c(Cl)cccc1N1C(=O)c2cc(-c3ccccc3)nn2CC1(C)C(=O)NCc1ccccc1 (stereo not drawn),3.75%,0.017%,0.175%,-0.1%,-0.11%
CC(C)[C@](O)(c1ccc2cc(OC(F)F)c(OC(F)F)cc2c1)c1cn[nH]n1,-10.8%,7.62%,5.04%,-6.44%,6.44%
COc1ccccc1CN[C@H]1CC(C)(C)[C@@H]2C[C@@](C)(O)CC[C@]12CCC(=O)NCCN1CCOCC1,-4.55%,-0.902%,-18.1%,-5.38%,-4.34%

SMILES,"activity change, negative = inhibition [1]","activity change, negative = inhibition [2]","activity change, negative = inhibition [3]","activity change, negative = inhibition [4]","activity change, negative = inhibition [5]"
CCOC(=O)Cn1cccc1-c1nc(-c2ccc(OC)cc2)c(-c2ccc(OC)cc2)s1,-5.57%,-31.3%,0.712%,-57.6%,-16%
C=C1/C(=C/C=C2\CCC[C@]3(C)[C@@H]([C@H](C)/C=C/[C@H](O)C4CC4)CC[C@@H]23)C[C@@H](O)C[C@@H]1O,-16.2%,–,0.19%,–,–
O=C(CN1CCC2(CC1)NC(=O)CC2C(=O)O)NCc1ccccn1 (stereo not drawn),-1.41%,-1.82%,-0.626%,-0.85%,1.36%
C1COC(NC(C2CC2)C2CC2)=N1,-6.79%,3.21%,1.53%,-8.89%,3.6%
COc1ccc(CN2CCN(CCCSc3cc(C(C)(C)C)c(O)c(C(C)(C)C)c3)CC2)c(OC)c1OC,5.82%,10.1%,8.18%,-7.02%,-0.542%
Cc1ccc([C@H]2C[C@@H](O)[C@@H](O)[C@@H]2NS(C)(=O)=O)cc1,-3.31%,-7.71%,-1.46%,-10.6%,-7.62%
CCOc1ccccc1NC(=O)N1CCn2c(C)ccc2C1CC (stereo not drawn),-11.1%,0%,-9.55%,-6.57%,-6.85%
O=C(NCc1cccnc1)C1CCC(=O)N1C1CCN(C(=O)Cc2ccccc2F)CC1 (stereo not drawn),-1.04%,-1.85%,1.5%,-8.44%,-2.96%
CC(C)N1CC(C(=O)N2CCC(c3ccccc3)CC2)NC1=O (stereo not drawn),-2.03%,2.69%,2.49%,-3.26%,10.8%
O=C(NC1CCCN(c2cc(N3CCCC3)ncn2)C1)c1ccco1 (stereo not drawn),-5.94%,-4.41%,-4.36%,-7.26%,-0.49%
COc1ccc(-c2cc(N3CCCN(C(=O)CCCc4ccccc4)CC3)n[nH]2)cc1,-9.19%,-5.93%,-4.49%,-18%,-9.39%
CCOC(=O)c1cc2n(n1)CC(C)(C(=O)NCc1ccccc1)N(Cc1ccccc1Br)C2=O (stereo not drawn),2.83%,0%,7.44%,6.23%,4.72%
CC(C)CN1C(=O)COC[C@@H]1[C@H](O)c1ccc(NC(=O)c2ccc3c(c2)OCO3)cc1,-5.23%,-4.36%,1.32%,-5.98%,-13.3%
CN(Cc1cccc(C(F)(F)F)c1)C(=O)CC1CCCC1,-3.08%,-7.12%,-3.4%,-22%,-13.3%
CN(Cc1nccs1)c1ncnc2ccc(-c3ccc4c(c3)OCO4)cc12,–,-55.9%,–,-66.8%,-69.5%
CC[C@H](Nc1ncnc2nc[nH]c12)c1nc2cccc(F)c2c(=O)n1-c1ccccc1,-13.1%,-12.5%,-0.104%,-17.9%,-4.94%
COc1cccc(-c2ccc(NC(=O)C3CCCN3C(=O)CNC(C)=O)cc2)c1 (stereo not drawn),-0.87%,-0.42%,-0.095%,-5.93%,-5.61%
O=C1CC(c2ccccc2)N(C(=O)CNC(=O)c2ccncc2)CCCCCN1 (stereo not drawn),-0.454%,-4.59%,2.09%,-5.02%,0.973%
CC(C)(C)c1cc2n(n1)CC(C)(C(=O)NC1CCCCCC1)N(Cc1cccc(F)c1)C2=O (stereo not drawn),0.281%,2.72%,1.9%,-6.42%,0.921%
O=C(O[C@H]1[C@@H]2C=CO[C@@H](O[C@@H]3O[C@H](CO)[C@@H](O)[C@H](O)[C@H]3O)[C@@H]2[C@@]2(CO)O[C@@H]12)c1ccccc1,-0.874%,-5.47%,4.05%,-13.5%,-7.53%

SMILES,"activity change, negative = inhibition [1]","activity change, negative = inhibition [2]","activity change, negative = inhibition [3]","activity change, negative = inhibition [4]","activity change, negative = inhibition [5]"
CCn1c(=O)n(CC)c2cc(S(=O)(=O)N3CCN(Cc4ccc5c(c4)OCO5)CC3)ccc21,-3.6%,2.91%,-4.92%,-11.1%,-0.461%
O[C@]12CCNC[C@H]1CN(Cc1cccc(N3CCOCC3)c1)CC2,-3.98%,-6.15%,-2.46%,-9.8%,-8.75%
O=C(NC[C@H]1O[C@@H](CC(=O)N2CCc3ccccc32)[C@H](O)[C@@H]1O)C1CC1,-4.81%,0.269%,-26.2%,-7.45%,-9.24%
CCCn1c(=O)c2ccc(C(=O)NC3CCCC3)cc2n2c(=O)n(CC(=O)c3cc(C)ccc3C)nc12,7.2%,0%,0.386%,4%,5.86%
CCOC(=O)c1cc2n(n1)CC(C)(C(=O)NCc1ccc(F)cc1)N(c1ccccc1C)C2=O (stereo not drawn),1.1%,0%,2.2%,-2.53%,1.08%
COc1ccc(OC)c(CCNC(=O)CCc2nnc3n(Cc4ccc(F)cc4)c(=O)c4ccccc4n23)c1,-1.16%,0%,-3.27%,-14%,1.25%
Cc1ccc(CCN2C(=O)c3cc4ccccc4n3CC2(C)C(=O)NCc2ccccc2)cc1 (stereo not drawn),-2.65%,-0.295%,-5.52%,-7.08%,-8.33%
COc1ccc(OC)c2c1cc1n2CC(C)(C(=O)NC2CCCCC2)N(Cc2ccccc2)C1=O (stereo not drawn),-8.5%,-3.44%,-7.82%,-13.8%,-12.6%
CC(C)NC(=O)c1ccc2c(=O)n(C(C)C)c3nn(CC(=O)Nc4ccccc4)c(=O)n3c2c1,1.33%,2.86%,2.55%,-7.3%,-0.972%
COc1ccccc1NC(=O)N1CCn2c(C)ccc2C1C(C)C (stereo not drawn),14.7%,0.917%,5.35%,-3.88%,9.15%
COCCC1(N(C)C)CCN(S(=O)(=O)c2cccc(OC)c2)CC1,3.77%,1.63%,10.1%,-3.95%,6.67%
COc1ccc2[nH]c(C(=O)N3CCCCCNC(=O)[C@@H]4CCC[C@@H]43)cc2c1,-3.03%,0.664%,2.04%,0.575%,10.9%
C=CCN(CC=C)CC(O)Cn1c2c(c3cc(C)ccc31)CCCC2 (stereo not drawn),3.24%,0.721%,7.65%,7.9%,1.34%
Cc1ccc(CN2C(=O)c3cc(-c4ccccc4)nn3CC2(C)C(=O)NCc2ccccc2)o1 (stereo not drawn),-2.39%,1.48%,1.9%,-8.22%,-3.26%
CC(C)C1=NOC2(CCN(C3COC3)CC2)C1,-4.21%,-3.59%,-1.77%,-7.85%,-5.66%
C=C[C@H]1[C@H](O[C@@H]2O[C@H](CO)[C@@H](O)[C@H](O)[C@H]2O)OC=C2C(=O)OCC[C@]21O,-0.222%,-8.35%,6%,-20.7%,1.51%
COc1ccc(NS(=O)(=O)c2cc3c(cc2Cl)n(C)c(=O)n3C)cc1OC,1.22%,1.36%,10.3%,2.72%,2.94%
CC1(C(=O)NC2CCCCCCC2)Cn2c(ccc2-c2ccco2)C(=O)N1Cc1ccc(Cl)cc1 (stereo not drawn),-9.88%,1.21%,-6.32%,-14.1%,-7.27%
CCCN1C(=O)c2c(C(=O)NCCc3ccccc3)ncn2CC1(C)C(=O)NCCC(C)C (stereo not drawn),4.04%,1.28%,7.35%,8.44%,11.3%
Cc1ccc(NC(=O)Cn2c(=O)oc3cc(S(=O)(=O)N4CCCC4)ccc32)cc1C,-1.31%,0%,6.93%,9.41%,-13.2%
